Reference: publication PMC9911399, “Two distinct binding modes provide the RNA-binding protein RbFox with extraordinary sequence specificity”
Substitutions are numbered along the chain they refer to; changes in the protein carry UniProt numbers. The list shows a part of the results.

T1: RBFOX1 RRM RbFoxmut (Fox-RRM*) (Homo sapiens, UniProt Q9NWB1 109-208, R118D;E147R;N151S;E152T)
T1 sequence: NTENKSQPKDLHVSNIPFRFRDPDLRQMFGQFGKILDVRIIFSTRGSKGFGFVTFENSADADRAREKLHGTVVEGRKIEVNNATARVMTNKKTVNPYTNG

B1: CUUUCAC (DNA:RNA)
RNA: GGGAGACCGGAAUUCAGAUUGUCCCUUUCACUUAAAUCCCGUCGUAGCCACCA
DNA 1: CAATCTGAATTCCGGTCTCCC
DNA 2: TGGTGGCTACGACGGGATT
B2: CGCAAGG (DNA:RNA)
RNA: B1 RNA with U26G, U27C, U28A, C29A, A30G, C31G
DNA 1: CAATCTGAATTCCGGTCTCCC
DNA 2: TGGTGGCTACGACGGGATT
B3: UAUCCCG (DNA:RNA)
RNA: B1 RNA with C25U, U26A, U28C, A30C, C31G
DNA 1: CAATCTGAATTCCGGTCTCCC
DNA 2: TGGTGGCTACGACGGGATT
B4: GGAGAAC (DNA:RNA)
RNA: B1 RNA with C25G, U26G, U27A, U28G, C29A
DNA 1: CAATCTGAATTCCGGTCTCCC
DNA 2: TGGTGGCTACGACGGGATT
B5: UCCGAAA (DNA:RNA)
RNA: B1 RNA with C25U, U26C, U27C, U28G, C29A, C31A
DNA 1: CAATCTGAATTCCGGTCTCCC
DNA 2: TGGTGGCTACGACGGGATT
B6: GUUUCUC (DNA:RNA)
RNA: B1 RNA with C25G, A30U
DNA 1: CAATCTGAATTCCGGTCTCCC
DNA 2: TGGTGGCTACGACGGGATT
B7: ACGUUUU (DNA:RNA)
RNA: B1 RNA with C25A, U26C, U27G, C29U, A30U, C31U
DNA 1: CAATCTGAATTCCGGTCTCCC
DNA 2: TGGTGGCTACGACGGGATT
B8: UGCAGGA (DNA:RNA)
RNA: GGGAGACCGGAAUUCAGAUUGUCCUGCAGGAUUAAAUCCCGUCGUAGCCACCA
DNA 1: CAATCTGAATTCCGGTCTCCC
DNA 2: TGGTGGCTACGACGGGATT
B9: CUGGCGU (DNA:RNA)
RNA: B1 RNA with U27G, U28G, A30G, C31U
DNA 1: CAATCTGAATTCCGGTCTCCC
DNA 2: TGGTGGCTACGACGGGATT
B10: UAUACUU (DNA:RNA)
RNA: B1 RNA with C25U, U26A, U28A, A30U, C31U
DNA 1: CAATCTGAATTCCGGTCTCCC
DNA 2: TGGTGGCTACGACGGGATT
B11: UAUGCGU (DNA:RNA)
RNA: B1 RNA with C25U, U26A, U28G, A30G, C31U
DNA 1: CAATCTGAATTCCGGTCTCCC
DNA 2: TGGTGGCTACGACGGGATT
B12: CACCUUG (DNA:RNA)
RNA: B1 RNA with U26A, U27C, U28C, C29U, A30U, C31G
DNA 1: CAATCTGAATTCCGGTCTCCC
DNA 2: TGGTGGCTACGACGGGATT
B13: UCUUAUA (DNA:RNA)
RNA: B1 RNA with C25U, U26C, C29A, A30U, C31A
DNA 1: CAATCTGAATTCCGGTCTCCC
DNA 2: TGGTGGCTACGACGGGATT
B14: ACUCUCU (DNA:RNA)
RNA: B1 RNA with C25A, U26C, U28C, C29U, A30C, C31U
DNA 1: CAATCTGAATTCCGGTCTCCC
DNA 2: TGGTGGCTACGACGGGATT
B15: GGUGAAA (DNA:RNA)
RNA: B1 RNA with C25G, U26G, U28G, C29A, C31A
DNA 1: CAATCTGAATTCCGGTCTCCC
DNA 2: TGGTGGCTACGACGGGATT
B16: CGAUAAG (DNA:RNA)
RNA: B1 RNA with U26G, U27A, C29A, C31G
DNA 1: CAATCTGAATTCCGGTCTCCC
DNA 2: TGGTGGCTACGACGGGATT
B17: CGAUCGC (DNA:RNA)
RNA: B1 RNA with U26G, U27A, A30G
DNA 1: CAATCTGAATTCCGGTCTCCC
DNA 2: TGGTGGCTACGACGGGATT
B18: CCACGGG (DNA:RNA)
RNA: B8 RNA with U25C, G26C, C27A, A28C, A31G
DNA 1: CAATCTGAATTCCGGTCTCCC
DNA 2: TGGTGGCTACGACGGGATT
B19: AAGAAAA (DNA:RNA)
RNA: B8 RNA with U25A, G26A, C27G, G29A, G30A
DNA 1: CAATCTGAATTCCGGTCTCCC
DNA 2: TGGTGGCTACGACGGGATT
B20: AGUCGCU (DNA:RNA)
RNA: B8 RNA with U25A, C27U, A28C, G30C, A31U
DNA 1: CAATCTGAATTCCGGTCTCCC
DNA 2: TGGTGGCTACGACGGGATT
B21: CGCUCGG (DNA:RNA)
RNA: B1 RNA with U26G, U27C, A30G, C31G
DNA 1: CAATCTGAATTCCGGTCTCCC
DNA 2: TGGTGGCTACGACGGGATT
B22: CUGUCUC (DNA:RNA)
RNA: B1 RNA with U27G, A30U
DNA 1: CAATCTGAATTCCGGTCTCCC
DNA 2: TGGTGGCTACGACGGGATT
B23: UCCUCCC (DNA:RNA)
RNA: B1 RNA with C25U, U26C, U27C, A30C
DNA 1: CAATCTGAATTCCGGTCTCCC
DNA 2: TGGTGGCTACGACGGGATT
B24: GUGCUCA (DNA:RNA)
RNA: B1 RNA with C25G, U27G, U28C, C29U, A30C, C31A
DNA 1: CAATCTGAATTCCGGTCTCCC
DNA 2: TGGTGGCTACGACGGGATT
B25: AAGGUCG (DNA:RNA)
RNA: GGGAGACCGGAAUUCAGAUUGUCCAAGGUCGUUAAAUCCCGUCGUAGCCACCA
DNA 1: CAATCTGAATTCCGGTCTCCC
DNA 2: TGGTGGCTACGACGGGATT
B26: UAAGCGG (DNA:RNA)
RNA: B25 RNA with A25U, G27A, U29C, C30G
DNA 1: CAATCTGAATTCCGGTCTCCC
DNA 2: TGGTGGCTACGACGGGATT
B27: GGCUAAU (DNA:RNA)
RNA: B1 RNA with C25G, U26G, U27C, C29A, C31U
DNA 1: CAATCTGAATTCCGGTCTCCC
DNA 2: TGGTGGCTACGACGGGATT
B28: ACCACCA (DNA:RNA)
RNA: B8 RNA with U25A, G26C, G29C, G30C
DNA 1: CAATCTGAATTCCGGTCTCCC
DNA 2: TGGTGGCTACGACGGGATT
B29: GCUCGCU (DNA:RNA)
RNA: B25 RNA with A25G, A26C, G27U, G28C, U29G, G31U
DNA 1: CAATCTGAATTCCGGTCTCCC
DNA 2: TGGTGGCTACGACGGGATT
B30: UACUUUG (DNA:RNA)
RNA: B25 RNA with A25U, G27C, G28U, C30U
DNA 1: CAATCTGAATTCCGGTCTCCC
DNA 2: TGGTGGCTACGACGGGATT
B31: GCCCUAU (DNA:RNA)
RNA: B25 RNA with A25G, A26C, G27C, G28C, C30A, G31U
DNA 1: CAATCTGAATTCCGGTCTCCC
DNA 2: TGGTGGCTACGACGGGATT

The binders below were run against T1, RBFOX1 RRM RbFoxmut (Fox-RRM*) (assay: EMSA; HiTS-Eq, 1 nM pool, 10 min; buffer printed only for the single-RNA assays: 10 mM Tris pH 7.5, 150 mM NaCl, 3.4 mM EDTA, 0.001% NP-40, 30 C). Details: tags: His6 N-terminal (pET28a); label: 5' 32P.
How it was run: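 Purified RbFox RRM, wild type or mutant, was incubated for 10 min in 50 µL with 1 nM of a 5′-radiolabelled RNA pool carrying 7 randomized nucleotides, whose flanks were annealed to DNA oligonucleotides, over a series of increasing protein concentrations. Unbound RNA was resolved on 8% native PAGE, cut out, reverse-transcribed, barcoded by PCR and sequenced on an Illumina HiSeq 2500. Relative association constants were derived from changes in read counts for each RNA species versus the control reaction and normalised to the cognate motif.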

Question: Which binding signal does the source give for B1 here?
Answer: 0.121 KA relative to UGCAUGU

Question: For B2, which binding signal is on record?
Answer: 0.0732 KA relative to UGCAUGU

Question: B3 was tested. Which binding signal did it give?
Answer: 0.0819 KA relative to UGCAUGU

Question: Which binding signal does the source give for B4 here?
Answer: 0.0549 KA relative to UGCAUGU

Question: How did the binding signal turn out when B5 was run?
Answer: 0.0481 KA relative to UGCAUGU

Question: Which binding signal does the source give for B6 here?
Answer: 0.0743 KA relative to UGCAUGU

Question: For B7, which binding signal is on record?
Answer: 0.101 KA relative to UGCAUGU

Question: Which binding signal does the source give for B8 here?
Answer: 0.0846 KA relative to UGCAUGU

Question: B9 was tested. Which binding signal did it give?
Answer: 0.135 KA relative to UGCAUGU

Question: B10 was tested. Which binding signal did it give?
Answer: 0.0928 KA relative to UGCAUGU

Question: Which binding signal does the source give for B11 here?
Answer: 0.108 KA relative to UGCAUGU

Question: With B12 as the binder, how does the binding signal read?
Answer: 0.123 KA relative to UGCAUGU

Question: Which binding signal does the source give for B13 here?
Answer: 0.16 KA relative to UGCAUGU

Question: How did the binding signal turn out when B14 was run?
Answer: 0.0575 KA relative to UGCAUGU

Question: For B15, which binding signal is on record?
Answer: 0.0696 KA relative to UGCAUGU

Question: For B16, which binding signal is on record?
Answer: 0.0989 KA relative to UGCAUGU

Question: B17 was tested. Which binding signal did it give?
Answer: 0.0736 KA relative to UGCAUGU

Question: How did the binding signal turn out when B18 was run?
Answer: 0.0735 KA relative to UGCAUGU

Question: With B19 as the binder, how does the binding signal read?
Answer: 0.106 KA relative to UGCAUGU

Question: With B20 as the binder, how does the binding signal read?
Answer: 0.0771 KA relative to UGCAUGU

Question: With B21 as the binder, how does the binding signal read?
Answer: 0.0892 KA relative to UGCAUGU

Question: For B22, which binding signal is on record?
Answer: 0.0817 KA relative to UGCAUGU

Question: B23 was tested. Which binding signal did it give?
Answer: 0.0615 KA relative to UGCAUGU

Question: With B24 as the binder, how does the binding signal read?
Answer: 0.0843 KA relative to UGCAUGU

Question: With B25 as the binder, how does the binding signal read?
Answer: 0.111 KA relative to UGCAUGU

Question: B26 was tested. Which binding signal did it give?
Answer: 0.0897 KA relative to UGCAUGU

Question: How did the binding signal turn out when B27 was run?
Answer: 0.098 KA relative to UGCAUGU

Question: B28 was tested. Which binding signal did it give?
Answer: 0.125 KA relative to UGCAUGU

Question: Which binding signal does the source give for B29 here?
Answer: 0.0951 KA relative to UGCAUGU

Question: For B30, which binding signal is on record?
Answer: 0.0734 KA relative to UGCAUGU

Question: B31 was tested. Which binding signal did it give?
Answer: 0.0677 KA relative to UGCAUGU
